The values below come from PubChem BioAssay (NCI).

SMILES strings stand for the structures.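 Five concentrations, 48 hours, 96-well plates. At the GI50, growth is halved. TGI denotes the concentration required for complete inhibition of growth.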

The assay has as its system NCI-H322M lung. The experiment in a line: inhibition of tumour cell growth, NCI panel, 48 h.
Regarding `C/C(=N\NC(=O)CSc1nc2sc3c(c2c(=O)n1-c1ccccc1)CCC(C)C3)c1ccc(Cl)cc1` (stereo unspecified), the GI50 is 2690 nM and the TGI is more than 100000 nM.

As for `COc1cc(OC)c(/C=C/S(=O)(=O)Cc2ccc(OC)c(NCC(=O)NO)c2)c(OC)c1`, the GI50 was 64.7 nM and the TGI was more than 100000 nM.

Turning to `CCOC(=O)c1c(NCC(=O)Nc2ccc(Br)cc2)sc2c1CCCC2`, the GI50 was 1670 nM and the TGI worked out at 3190 nM.
